Sequences with one replicate were seen in a single cluster, so their values are uncertain.
Test system: ATP
Assay: switch fluorescence ratio, 500 uM ATP over buffer (Cy3 cluster intensity, sum of 5 cycles each) (fold (ratio)); higher = stronger signal-on switching upon ATP binding; sequences stand for … in TCGTCGGCAGCGTCAGATGTGTATAAGAGACAGTTTTTTTTTTTTTTTTTTTTTTTTT…TC
Conditions: aptamer strand: ATP DNA aptamer (quencher-CACCTGGGGGAGTATTGCGGAGGAAGG + anchor), 100 nM annealed; ATP concentration: 500 uM; one replicate
How it was run: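 After annealing to 100 nM quencher-labelled ATP aptamer, Cy3-labelled switching-strand clusters on a modified Illumina MiSeq flow-cell were imaged in selection buffer. A second image followed after 15 min with 500 uM ATP at 22 °C, and five such buffer/ATP cycles were done, each separated by NaOH stripping and re-annealing. The fluorescence ratio, averaged per switch-domain sequence, is summed target-cycle over summed buffer-cycle Cy3 intensity per cluster, with clusters outside 100-1000 RFU excluded.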
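Also: ATP exposure 15 min at 22 °C before imaging.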

Sequence	switch fluorescence ratio
GAAAAAGTAG	1.04
TGTATACTGA	1.02
TTATCACGTA	1.16
AAAACCATCT	1.04
CCTTCAATTA	1.17
ACGAATTCTC	1.04
ACTCCTGAAG	0.995
CAAGGCTGCG	0.973
TACGGGTTAC	0.985
GGTGAGTCTC	0.994
GCATTAAAGA	1.06
CCCCTGCCAA	4.72
AGCACGGGCT	0.953
GTTTTGTCTA	0.945
AATTGCCGTT	1.05
TATGGTTTTA	0.982
CCAAGGTAG	1.15
CCAATCTGCG	1.02
ATTTTTCCTG	1.03
AGTTGGTATA	1.03
CTACCTTTTA	1.02
GTGCGTGAAC	1.02
AACATAGAAA	1.01
ATACCCAGTT	1.02
TCCTACTAAG	1.04

Sequence	switch fluorescence ratio
ATGTACTAAA	1.08
GTTTAATGT	0.95
GCTCTGTATG	1.02
TTGGTATCAT	0.942
CTCAGTACCT	1.21
CCATAGGTTT	1
AGGAAGGACA	1.01
CTTTAAAGTC	1.03
AATGCCATGG	1.03
CGAAAGTGCG	1.01
ATTTTACGT	1.02
ATCGAGAAGC	1.07
ATGCGCCGCT	1
GAGGGCCGAT	1.01
GCATCTGAGT	0.998
AGTCTAAGA	0.976
TTTCACGGCA	1.06
TTAACCCTAA	1.06
AAGCAAGCGC	1.09
ACAGCCTAAG	1.06
CAACCTTGGC	1.05
AACTCTCGGA	0.994
TGCAGGTCGT	0.994
TTTGTTACAT	0.995
TCTCATGGGT	0.976

Sequence	switch fluorescence ratio
CATGGGTACC	0.983
GTCTTAGTCG	1.01
ATTAGCAACA	1.1
ATTAAACTGT	1
GGAGACTCTC	0.968
CCCACGGATT	1.04
GCCTAAGTAC	1.29
CAATATCATG	0.993
GAAAGTATG	1.03
ACCAGACGAA	1.2
TCATAGGGCA	1.01
TCCGTGAATA	1.94
CGCGGGACGT	1
GTCGTGCGGG	0.983
ATATAGCGAC	1.12
CTTACTGTCA	1.07
GCAGGTGAGT	1.49
CCTGAGTGGT	1.03
CTTTATTGTT	0.966
CACAGCACGG	1.59
TAGAAAATGA	0.976
GTGTCAATGT	1.01
TAAATCTGAG	1.05
GCACAAGGCT	1.06
ATAAACTTTA	0.986

Sequence	switch fluorescence ratio
TAGGGTGATA	1.02
CACCAAGCGA	1.25
ATTAGTAAGC	1.03
CGGTGCACGA	1
TATGTGCATG	1.02
GCAACGCAGC	1.17
GTTTATAC	1.07
GGGGTGACAC	1.04
TGACCCGCCT	1.11
ATCCCGGATC	0.991
TTCGACCTA	1.1
CACGAACGAC	1.48
GCACGGCGGT	1.02
TTTCCCTATG	1
AGGTAGGCAG	0.941
TGAGCATTCG	1.09
AGAAGGGACT	0.978
TTTGCAGATA	1
AAGGCCAACA	1.02
GCACAGGGGG	1.04
AGAATTTCTT	0.995
TTACTTAATA	0.973
GTACTTATTG	0.996
TAGTTAATTA	1
CGAATCACCC	1.08

Source: the supplement of paper PMC10126150
